Data from the RNAGym collection of RNA variant scans (doi:10.1093/nar/gkz1192).
Read counts are not given, so values of variants with three or more changes are uncertain.

B1: CPEB3 Ribozyme (parent)
chain: UAACAGGGGGCCACAGCAGAAGCGUUCACGUCGCAGCCCCUGUCAGAUUCUGGUGAAUCUGCGAAUUCUGCUGUAUAUCUC

Variants of: B1
Assay: self-cleavage, relative activity (ratio to wild type); higher = more cleavage; in vitro, sequencing
Summary of the method: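 Libraries of CPEB3 self-cleaving ribozyme mutants came from rounds of error-prone PCR and carried barcodes, which DNA sequencing matched to variants. In vitro transcription used T7 RNA polymerase at 37°C for 5 hours, with a further 15 min in DNase I before EDTA stopped the reaction; the ribozymes cleaved during both steps. The RNA was reverse transcribed with template switching and sequenced on Illumina. Relative activity is the cleaved/total read fraction of a variant divided by that of the unmutated ribozyme, averaged over three batches with at least 5 reads.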
Variant UAACAGCGGGCCUCAGCAGAAGCGUUCACGUCGCCGCCCCUGUCAGAUUCUGGUGAAUCUGCGAAUUCUGCUGUAUAUCCC has a self-cleavage of 0.35. UAACAGCGGGCCUCAGCAGAAGCGUUCACGUCGCAGCCCUUGUCAGGUUCUGGUGAAUCUGCGAAUUCUGCUGUAUACCUC gave a self-cleavage of 0.26. With UAACAGCGGGCCUCAGCAGAAGCGUUCACGACGCAGCCCCUGUCAGAUUCUGGUGAAUCUGCGAAUUCUGCUGUAUAUCUC the self-cleavage was 0.1. UAACAGCGGGCCUCAGCAGAAGCGUUCACGUCGCAGCCCCUGUCAGAUUCUGGUGAACCUGCGAAUUCUGCUGUAUAUCUC gave a self-cleavage of 0.07. In the case of UAACAGCGGGCCACGGCGGAAGCGUUCACGUCGCAGCCCCUGUCGGAUUCUGGUGAAUCUGCGAAUUCUGCCGUAUAUCUC, the self-cleavage is reported as 0. For UAACAGCGGGCCACGGCAGGGGCGUUCACGUCGCAGCCCCUGGCAGAUUCUGGUGGAUCUGCGAAUUCUGCUGUAUAUCUC, the self-cleavage was 0. For UAACAGCGGGCCACGGCAGAAGCGUUCACGUCGCAGCCCCUGUCGGAUUUUGGUGAAUCUGCGUAUUCUGCAGUAUAUCUC, the self-cleavage was 0.05. With UAACAGCGGGCCACGGCAGAAGCGUUCACGUUGCAGCCCCUGUCAGAUUCCGGUGGACCUGCGAAUUCUGCUGUUUAUCUC the self-cleavage was 0.03. In the case of UAACAGCGGGCCACGGCAGAAGCGUUCACGCCGCAGCCCCUGUCAUAUUCUGGUGAUUCUGCGAAUUCAGCUGUAUAUCGC, the self-cleavage is reported as 0.11. With UAACAGCGGGCCACUGCAGAAGCGUUCACGUCGCAGCCCCUGUCAGAUUCUGGUGAAUCUGCGAGUUCUGCUGUAUGUCUC the self-cleavage was 0.16. In the case of UAACAGCGGGCCACUGCAGAAGCGUUCACGUCGCAGCCCCUGUCAGAUCCUGGUGAAUCUGCGAAUCCUGCUGUACAUCUC, the self-cleavage is reported as 0.12. With UAACAGCGGGCCACUGCAGAAGCGUUCACGUCGCAGCCCCUGUCAGAUUCUGGUGAAUCUGCGAAUGCCGCUGUAUAUCUC the self-cleavage was 0.08. Variant UAACAGCGGGCCACAGCCGAAGCGUUCACGUCGCUACCCCUGUCAGAUUCUGGUGAAUCUGCGAAUUCUGCUGUAUAUCUC has a self-cleavage of 0.05. With UAACAGCGGGCCACAGCCGAAGCGUUCACGUCGCAGCCCCUGUCAGUUUCUGGUGAAUCUGCGAACCCUGCUGUGUAUCUC the self-cleavage was 0.19. For UAACAGCGGGCCACAGCGGAAGCGUUCACGUCGCAGCCCCUGUCAGAUUCUGGUGUAUCUGCGAACUCCGCUGUAUAUCUC, the self-cleavage was 0.13. UAACAGCGGGCCACAGCGGAAGCGAUCACGCCGCAGCCCCUGUCAGAUUCUGGUGAAUCUGCGAAUUCUGCUGUAUACCUC showed a self-cleavage of 0.28. Variant UAACAGCGGGCCACAGCGGAAGCGCUCACGUCGCAGCCCCUGUCAGAUUCUGGUGGAUCUGUGAAUUCUGCUGUAAAUCUC has a self-cleavage of 0.04. With UAACAGCGGGCCACAGCUGGAGCGUUCCCGUCGCAGCCCCUGUCAGAUUCUGGUGAAUCUGCGAAUUCUGCUGUAUAUCUC the self-cleavage was 0.28. With UAACAGCGGGCCACAGCUGGAGCGUUCACGCCGCAGCCCCUGUCAGAUUCUGGUGAAUCUGCGAAUUCUGCUGUAUAUCUC the self-cleavage was 0.35. Variant UAACAGCGGGCCACAGCUGAAGCGUUCACGUCGCAGCCCCUGUCCGAUUCCGGUGACUCUGCGAAUCCUGCUGUACAUCUC has a self-cleavage of 0.08. In the case of UAACAGCGGGCCACAGCUGAAGCGUUCACGUCUCAGCCCCUGUCAGAUUCUGCUGAAUCUGCGAAUUCUGCUUUAUAUCUC, the self-cleavage is reported as 0.17. For UAACAGCGGGCCACAGCUGAAGCGUUCACGUCGCAGCCCCCGUCAGAUUCCGGUGAAUCUGCGAAUUCUGCUGUAUAUCUC, the self-cleavage was 0.09. For UAACAGCGGGCCACAGCAGGAGCGUUCACGUCGCGGCCCCUGUCAGACUCUGGUGAAUCUGCGAAUUCUGCUGUAUAUCUC, the self-cleavage was 0.31. Work on UAACAGCGGGCCACAGCAGGAGCGUUCACGUUGCAGCCCCUGUCAGAUUCUGGUGAAUCUGCGAAUUCUGCCGUAUAUCUC yielded a self-cleavage of 0.13. UAACAGCGGGCCACAGCAGGAGCGUUCACGUCGCAGCCCCUGUCAGAUUCUGGUGAACCUGCGAAUUCUGCUGUAUAUCUC showed a self-cleavage of 0.29. In the case of UAACAGCGGGCCACAGCAGUAGCGUCCAUGUCGCAGCCCCCGUCAGAUUCUGGUGAAUCCGCGAAUUCUGCUGUAUAUCUC, the self-cleavage is reported as 0.03. UAACAGCGGGCCACAGCAGUAGCGUUCACGACGCAGCCCCUGUCAGAUUCCGGUGAACCUGCGAAUUCUGCUGUAUAUCUC gave a self-cleavage of 0.07. Work on UAACAGCGGGCCACAGCAGAGGCGUUCGCCUCGCAGCCCCUGUUAGAUUCUGGUGAAUCUGCGAAUUCUGCUGAAUAUCUC yielded a self-cleavage of 0.05. For UAACAGCGGGCCACAGCAGAGGCGUUUACGUCGCAGCACCUGUCUGAUCCUGGUGAAUCUGCGAAUUCUGCUGUAUACCUC, the self-cleavage was 0.03. For UAACAGCGGGCCACAGCAGAGGCGUUCACUUCGCAGCCCCUGUCAGAUUCUGGUGAACCUGCGAAUUCUGCUGUAUAUCUC, the self-cleavage was 0.06. UAACAGCGGGCCACAGCAGAGGCGCUCACGUCGCAGCCCCUGUCAGAUUCUGGUGAAUCUGCGAAUUCUGCUGUAUAUCUC showed a self-cleavage of 0.64. UAACAGCGGGCCACAGCAGAGGCGUUCACGUCGCAGCCCCUGUCAGAUUCUGGCGAAUCUGCGAAUUCUGCUGUAUAUCAC gave a self-cleavage of 0.09. UAACAGCGGGCCACAGCAGAAGCGUUCGCGUCGCAGCCCCUGUCCGAUUCAGGUGAAUCUGCGAAUUCUGCUGUAUAUCUC gave a self-cleavage of 0.24. For UAACAGCGGGCCACAGCAGAAGCGUUCACGUCGCCGCCCCUGUCAGAUUCUGGUGAAUCUGCGAAUACAGCUGUAUGUCUC, the self-cleavage was 0.11.
